The other results are listed elsewhere or left out.
What was measured:
HSkMC = human skeletal muscle cells; assay: cytotoxicity call (relative viability < 0.9); details: 10 µM
HepG2 = assay: cytotoxicity call (relative viability < 0.9); details: 10 µM
S. aureus RN4220 = assay: growth inhibition call (relative growth <= 0.2); details: 50 µM

SMILES | cytotoxicity call (HSkMC) | cytotoxicity call (HepG2) | growth inhibition call (S. aureus RN4220)
Cc1ccc(S(=O)(=O)Nc2ccc3c(c2)C(=O)N([C@H](C)CO)C[C@@H](C)[C@@H](CN(C)S(=O)(=O)c2c(C)noc2C)O3)cc1 | inactive | inactive | inactive
COc1ccc(CN(C)C[C@@H]2OCCCC[C@@H](C)Oc3ccc(NC(=O)CCC(F)(F)F)cc3C(=O)N([C@H](C)CO)C[C@@H]2C)cc1 | inactive | inactive | inactive
C[C@@H]1CCCCO[C@H](CN(C)C(=O)c2ccccc2)[C@@H](C)CN([C@@H](C)CO)C(=O)c2cc(NC(=O)Nc3cccc4ccccc34)ccc2O1 | inactive | inactive | inactive
C[C@@H]1CN([C@@H](C)CO)C(=O)c2cccc(NC(=O)C3CC3)c2O[C@H]1CN(C)Cc1ccc(C(=O)O)cc1 | inactive | inactive | inactive
COc1ccc(NC(=O)N(C)C[C@@H]2Oc3ccc(NC(=O)CCCN(C)C)cc3CC(=O)N([C@H](C)CO)C[C@H]2C)cc1 | inactive | inactive | inactive
O=C(CCCCCCC(=O)Nc1ccc([C@H]2O[C@@H](CSc3nc4ccccc4o3)C[C@H](c3ccccc3)O2)cc1)NO | inactive | active | inactive
COc1ccc(S(=O)(=O)N[C@@H]2CC[C@@H](CCNC(=O)CN3CCOCC3)O[C@@H]2CO)cc1 | inactive | inactive | inactive
C[C@@H]1CCCCO[C@@H](CN(C)S(=O)(=O)c2ccc(F)cc2)[C@H](C)CN([C@@H](C)CO)C(=O)c2cc(NC(=O)Nc3cccc4ccccc34)ccc2O1 | inactive | inactive | inactive
C[C@@H]1CN([C@H](C)CO)C(=O)c2cc(NC(=O)Nc3cccc4ccccc34)ccc2O[C@@H](C)CCCCO[C@@H]1CN(C)Cc1ccncc1 | inactive | inactive | inactive
Cc1ccc(S[C@]2(C(=O)O)CC(=O)N(Cc3ccccc3C(F)(F)F)[C@@H]2c2ccc(CO)cc2I)cc1 | inactive | inactive | inactive
[N-]=[N+]=NCc1ccccc1C[C@]1(C(=O)NCCN2CCOCC2)COC(c2ccc(OCCCO)cc2)=N1 | inactive | inactive | inactive
Cc1ccccc1S(=O)(=O)N1C[C@H](O)COC[C@@H]2O[C@H](CC(=O)NCCc3ccccc3)CC[C@H]21 | inactive | inactive | inactive
Cc1ccc(S(=O)(=O)Nc2ccc3c(c2)C(=O)N([C@@H](C)CO)C[C@@H](C)[C@H](CN(C)C(=O)NC(C)C)O3)cc1 | inactive | inactive | inactive
C[C@@H]1CCCCO[C@H](CN(C)Cc2ccc(Cl)c(Cl)c2)[C@@H](C)CN([C@H](C)CO)C(=O)c2cc(NC(=O)c3ccccc3)ccc2O1 | inactive | inactive | inactive
C[C@@H]1CN([C@@H](C)CO)C(=O)c2cc(NC(=O)Nc3cccc4ccccc34)ccc2O[C@H]1CN(C)Cc1ccncc1 | inactive | inactive | inactive
C[C@@H]1CN([C@@H](C)CO)C(=O)c2cc(NC(=O)Nc3ccc(F)cc3)ccc2O[C@@H](C)CCCCO[C@H]1CN(C)CC1CCCCC1 | inactive | active | inactive
C[C@@H]1CCCCO[C@H](CN(C)Cc2ccc(Cl)c(Cl)c2)[C@H](C)CN([C@H](C)CO)C(=O)c2cc(NS(=O)(=O)c3cccs3)ccc2O1 | inactive | inactive | inactive
C[C@H]1CN([C@@H](C)CO)C(=O)Cc2cc(NC(=O)CCCCCC(=O)Nc3ccccc3N)ccc2O[C@H]1CN(C)C(=O)Nc1ccc(F)cc1 | inactive | inactive | inactive
C[C@@H]1CN([C@@H](C)CO)C(=O)c2cc(NS(=O)(=O)c3ccccc3)ccc2O[C@@H]1CN(C)Cc1ccncc1 | inactive | inactive | inactive
CCCNC(=O)N1C[C@@H](O)COC[C@@H]2O[C@H](CC(=O)NCc3ccncn3)CC[C@H]21 | inactive | inactive | inactive
C[C@@H]1CN([C@@H](C)CO)C(=O)c2cc(C3=CCCC3)cnc2O[C@@H]1CN(C)S(=O)(=O)c1cn(C)cn1 | inactive | inactive | inactive
C[C@@H]1CN([C@@H](C)CO)S(=O)(=O)c2ccc(-c3ccc(C(=O)N(C)C)cc3)cc2O[C@H]1CN(C)C(=O)C1CCC1 | inactive | inactive | inactive
CC(C)c1c(C(=O)c2ccccc2)c(-c2ccccc2)c(-c2ccc(F)cc2)n1CC[C@@H](O)C[C@@H](O)CC(=O)O | inactive | inactive | inactive
C[C@@H]1CCCCO[C@@H](CN(C)C(=O)C2CCCCC2)[C@@H](C)CN([C@@H](C)CO)C(=O)c2cc(NC(=O)C3CCCCC3)ccc2O1 | inactive | inactive | inactive
C[C@@H]1CN([C@@H](C)CO)C(=O)c2cccc(NS(=O)(=O)c3ccc(F)cc3)c2O[C@@H]1CN(C)Cc1ccc(Oc2ccccc2)cc1 | inactive | active | inactive
COc1ccc(CN(C)C[C@@H]2Oc3ccc(NC(=O)Nc4cccc5ccccc45)cc3CC(=O)N([C@H](C)CO)C[C@H]2C)cc1 | inactive | inactive | inactive
COC(=O)C[C@H]1CC[C@H]2[C@@H](COC[C@@H](O)CN2S(=O)(=O)c2cn(C)cn2)O1 | inactive | inactive | inactive
